Laboratory results as given in PubChem BioAssay AID1345082 (National Center for Advancing Translational Sciences (NCATS), 2018).
Hit rate of the full screen: of about 94,000 compounds, about 4,000 (4.3%) were called active. Inconclusive means that the source gave no clear call. Such entries were picked first, then a sample of the others. Calls follow the shape of the dose curve; as a rule, active = well fitted inhibition curve with a large enough effect; inconclusive = small, poorly fitted or top-dose-only effect; inactive = no such curve, though single readings can be large or run the other way. A potency beside an inconclusive call is a rough fit, not a confirmed value.

assay: Cytotoxic Profiling in NIH 3T3 Cell Line of Diverse Libraries Using Quantitative High-Throughput Screening; details: NIH 3T3 viability, CellTiter-Glo ATP luminescence, 48-72 h; series mostly up to 96.7 µM; also: nearly all actives have a fitted effect of over 55% in size
How it was run: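 First NIH 3T3 cells are plated at 400 cells/well; next compound is pinned in; then plates incubate 48 or 72 hr at 37 °C; finally CellTiter-Glo is added and luminescence read after 10 min.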
Potency is read from the fitted curve at half-maximal effect; tags tell the direction and shape of the fitted curve.

SMILES | Potency
Cn1cccc1C(=O)N1CC(c2noc(COc3ccccc3)n2)C1 | inconclusive: 44.7 µM [inhibitor, partial curve, poor fit]
COC(=O)N1CCN(Cc2ccccc2-c2ccc(C)c(Cl)c2)CC1 | inconclusive: 50.1 µM [inhibitor, partial curve, poor fit]
O=C1NCCC[C@@H]1NC(=O)[C@H]1CN(C(=O)c2ccccc2)CCN1S(=O)(=O)c1ccc(F)cc1 | inactive
Cc1ccnn1CC(=O)N1CCOc2c(O)cc(-c3cccc(Cl)c3)cc2C1 | inconclusive: 50.1 µM [inhibitor, partial curve, poor fit]
COc1c[nH]c(CN2CCCC(Nc3ccc(C(C)C)cc3)C2)cc1=O (stereo unspecified) | inconclusive: 22.4 µM [inhibitor, full curve]
CC(C)(Oc1nn(Cc2cccc(Cl)c2)c2ccccc12)C(=O)NC1CCOCC1 | inconclusive: 56.2 µM [inhibitor, partial curve, poor fit]
CC(=O)Nc1cccc(OCc2nnc(C(=O)N3CCC[C@@H]3C(c3ccccc3)c3ccccc3)n2-c2ccccc2)c1 | inconclusive: 25.1 µM [inhibitor, full curve]
COCc1ccc2c(c1)c(OC(C)(C)C(=O)NCC1CC1)nn2Cc1ccccc1 | inconclusive: 100 µM [inhibitor, partial curve]
O=C1COc2ccc(-c3cccc(O)c3)nc2CN1CCOc1ccccc1 | inconclusive: 89.1 µM [inhibitor, partial curve]
COc1ccccc1N1CCN(C(=O)[C@@H]2Cc3c[nH]c4cccc(c34)[C@H](CC(C)C)N2)CC1 | inconclusive: 50.1 µM [inhibitor, partial curve, poor fit]
O=C(CC1CCCCC1)N1CC(n2cc(COCC3CC3)nn2)C1 | inactive
O=C(c1cccs1)N1Cc2[nH]cnc2C[C@H]1c1nc(-c2ccc3ccccc3c2)no1 | inconclusive: 100 µM [inhibitor, partial curve, poor fit]
COC(=O)c1ccc(COCC2=CC(C)(C)Oc3ccc(OC)cc32)cc1 | inconclusive: 31.6 µM [inhibitor, partial curve, poor fit]
Cc1noc2c(NC3CCC(O)CC3)cc(-c3cccnc3)nc12 (stereo unspecified) | active: 25.1 µM
O=[S+]1([O-])NC2(CCN(Cc3cccc4ccccc34)C2)CNc2ccccc21 (stereo unspecified) | inconclusive: 44.7 µM [inhibitor, partial curve, poor fit]
COc1ccc(-c2cccc(C(=O)NCCc3ccc(F)cc3)c2)nn1 | inconclusive: 56.2 µM [inhibitor, partial curve, poor fit]
O=C(C1CC1)N1CCN(Cc2ccccc2-c2cccnc2)CC1 | inconclusive: 112 µM [inhibitor, single point]
O=C(CC1CCCCC1)N1CCC(c2n[nH]c(=O)n2-c2ccccc2)CC1 | inactive
COc1ccc(Cn2c(=O)c(-c3noc(C)n3)c3n(c2=O)CCCCC3)cc1 | inactive
O=C(c1ccc(F)cc1)N1CCCC(C(=O)N2CCC(c3nc4ccncc4[nH]3)CC2)C1 (stereo unspecified) | inactive
COc1cccc(-c2cccc(C(=O)N3CCCC3C(=O)NCC(F)(F)F)c2)c1 (stereo unspecified) | inactive
Cc1cc(N2CCN(Cc3ccc(F)c(F)c3)C(CCO)C2)nc(N)n1 (stereo unspecified) | inconclusive: 63.1 µM [inhibitor, partial curve, poor fit]

SMILES | Potency
O=C(C1CC1)N1CCCC(N2CCN(c3cccc(C(F)(F)F)c3)CC2)C1 (stereo unspecified) | inactive
COC(=O)C1=C(C)N=C2SC=C(CC(=O)NCc3cccc(F)c3)N2C1c1ccccc1 (stereo unspecified) | inconclusive: 50.1 µM [inhibitor, partial curve, poor fit]
CCN1CCN(C(=O)CC2CCCN(c3cnn(CC4CC4)c(=O)c3)C2)CC1 (stereo unspecified) | inconclusive: 70.8 µM [inhibitor, single point]
O=C(NCc1ccc(F)cc1)c1ccc2nnc(-c3cc[nH]c3)n2c1 | inconclusive: 44.7 µM [inhibitor, partial curve]
CCn1nccc1C(=O)NCC12CCCC=C1N(Cc1ccccc1)C(=O)CC2 (stereo unspecified) | inconclusive: 79.4 µM [inhibitor, partial curve, poor fit]
Cc1cc(-c2cc(-c3ccccn3)nc3c(C)noc23)ccn1 | inconclusive: 35.5 µM [inhibitor, partial curve, poor fit]
COc1cccc(-c2cc(C(=O)N3CCC(Cc4ccccc4)CC3)c3cnn(C)c3n2)c1 | inconclusive: 39.8 µM [inhibitor, partial curve]
CC1Oc2ccc(NC(=O)c3ccc(F)cc3)cc2CN(Cc2ccc3c(c2)OCO3)C1=O (stereo unspecified) | inconclusive: 50.1 µM [inhibitor, partial curve, poor fit]
COC(=O)C1=C(C)N=C2SC=C(CC(=O)NCc3cccc(F)c3)N2C1c1ccccc1OC (stereo unspecified) | inconclusive: 44.7 µM [inhibitor, partial curve, poor fit]
COCCCNc1ncnc2sc3c(c12)CCN(Cc1cccnc1)C3 | inconclusive: 56.2 µM [inhibitor, partial curve, poor fit]
O=C(NC1CCN(CCn2nc3n(c2=O)CCCC3)C1)c1ccccn1 (stereo unspecified) | inactive
COCc1ccc2c(c1)c(OC(C)(C)C(=O)N1CC(O)C1)nn2Cc1ccccc1 | active: 100 µM
Cn1nc(-c2cccc(F)c2)c(N2CCCCC2)c1NC(=O)c1ccccc1F | active: 39.8 µM
O=C(c1ccc(Cl)nc1)N1CCN(c2ccc3nnc(-c4ccccc4)n3n2)CC1 | inconclusive: 70.8 µM [inhibitor, single point]
CCS(=O)(=O)c1ccc2oc([C@H]3CCN(C4CCCCC4)C3)nc2c1 | inactive
Cc1cc2nc3n(c(=O)c2n1CC(=O)Nc1ccc2c(c1)OCO2)CCCC3 | inactive
COCc1cc(=O)n(CC(=O)Nc2cccc(OC)c2)c(N2CCOCC2)n1 | inactive
O=C(C1CC1)N1CCCN(c2ccc3nnc(C4CC4)n3n2)CC1 | inactive
CCC(C)NC(=O)c1cc(-c2ccccc2C(F)(F)F)nc2c1cnn2C (stereo unspecified) | inconclusive: 44.7 µM [inhibitor, partial curve, poor fit]
Cc1ccc(-n2cc(CN3CCCCC3C(N)=O)c(-c3cccc(C)c3)n2)cc1 (stereo unspecified) | active: 79.4 µM
CCN1c2cc(C(=O)Nc3ccc(F)c(F)c3)ccc2C(=O)N2CCCCC21 (stereo unspecified) | inconclusive: 39.8 µM [inhibitor, partial curve, poor fit]
COC[C@@H]1CCCN1Cc1cc2ccc(C)cc2nc1-c1ccc(OC)cc1 | inconclusive: 44.7 µM [inhibitor, partial curve, poor fit]

SMILES | Potency
CC(C)C(=O)Nc1ccc(C2(C(=O)NCc3cccs3)CCCCC2)cc1 | active: 31.6 µM
Cc1ccc(CNC(=O)N2CC(N(CC(C)C)C3CCN(C)CC3)C2)cc1 | inactive
CN1CC2(CCN(Cc3cn[nH]c3-c3cccs3)CC2)CC1C(=O)N1CCOCC1 (stereo unspecified) | inactive
COc1ccccc1C(=O)NCCn1ccn2nc(-c3cc(C)ccc3C)cc2c1=O | inconclusive: 50.1 µM [inhibitor, partial curve, poor fit]
Cc1ccc(-c2cn3cc(C(=O)NCc4cccnc4)nc3s2)cc1 | inconclusive: 89.1 µM [inhibitor, partial curve]
O=C(c1cccc(C(F)(F)F)c1)N1CCC(c2n[nH]c(=O)n2-c2ccccc2)CC1 | inactive
CN(C)c1cccc(NC(=O)Cc2c[nH]c3ncc(-c4ccccc4)cc23)c1 | inconclusive: 39.8 µM [inhibitor, partial curve]
CC(C)CCNC(=O)CN1C(=O)NC2(CCCCC2)C1=O | inactive
O=C1COc2ccc(-c3ccsc3)nc2CN1Cc1ccccc1 | inconclusive: 56.2 µM [inhibitor, partial curve, poor fit]
O=C(CN1C(=O)NC(c2ccc(Cl)cc2)C2=C1COC2=O)Nc1cccc(Br)c1 (stereo unspecified) | inconclusive: 31.6 µM [inhibitor, partial curve, poor fit]
Cc1ccc(C)c(NC(=O)NCC2CCOCC2)c1 | inactive
COc1ccc(-c2cc(N3CCCN(C(=O)Cc4ccc(Cl)cc4)CC3)n[nH]2)cc1 | inconclusive: 44.7 µM [inhibitor, partial curve, poor fit]
Oc1ccccc1CN1CCOC[C@H]1c1ncc(-c2cccc(Cl)c2)[nH]1 | inconclusive: 89.1 µM [inhibitor, partial curve]
O=C(Nc1cccc(OC(F)(F)F)c1)[C@@H]1COCC(=O)N1Cc1ccc(F)cc1 | inconclusive: 50.1 µM [inhibitor, partial curve, poor fit]
O=C(NCCc1noc(-c2ccncc2)n1)C1CC(=O)N(c2ccc(F)c(Cl)c2)C1 (stereo unspecified) | inactive
O=C(NC1CC1)c1cc(C2CC2)nc2c1c(C1CCCN1)nn2-c1ccccc1 (stereo unspecified) | active: 31.6 µM
O=C(Nc1ccc(Cl)cc1Cl)c1cn2c(n1)CN(C(=O)c1ccccc1F)CC2 | inconclusive: 44.7 µM [inhibitor, partial curve, poor fit]
N#Cc1ccc(C(=O)N2CCC3(CC2)NC(=O)N(Cc2cccc(Cl)c2)C3=O)cc1 | inconclusive: 44.7 µM [inhibitor, partial curve, poor fit]
O=C(Cc1cccn1-c1ccc(F)cc1)NC1CCCC1 | inactive
Cc1ccc(-c2c(C(=O)NCc3ccccc3)nc3sccn23)cc1 | inactive
C[S+](=O)([O-])NC1CCN(C(=O)N2CC3CC(C2)[C@H]2CCCC(=O)N2C3)CC1 (stereo partly specified) | inactive
COCc1ccc2c(c1)c(OC(C)(C)C(=O)NCC1CCOCC1)nn2CCC(C)C | inconclusive: 39.8 µM [inhibitor, partial curve, poor fit]
